Measurements taken from the RNAGym collection of RNA variant scans (doi:10.1073/pnas.2313332121).
Variants at the background level are over-represented here.

B1: TPR 5TU (parent)
chain: GGAUCUUCUCGAUCUAACAAAAAAGACAAAUCUGCCACAAAGCUUGAGAGCAUCUUCGGAUGCAGAGGCGGCAGCCUUCGGUGGCGCGAUAGCGCCAACGUUCUCAACUAUGACACGCAAAACGCGUGCUCCGUUGAAUGGAGUUUAUCAUG

Variants of: B1
Test: polymerase ribozyme fitness, log enrichment relative to wild type (log ratio); higher = more active; in vitro selection for triplet polymerase activity
Summary of the method: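 To select mutant libraries of each subunit of a heterodimeric triplet polymerase ribozyme, built by PCR and transcribed, each was annealed with a biotinylated primer, partner subunit and triplets, then incubated frozen at −7 °C. Extended constructs were gel-excised, captured on streptavidin beads and amplified by RT-PCR, in one round carried out in triplicate. Illumina sequencing of input and output libraries kept genotypes with ≥10 input reads and ≥1 read per output. Fitness is the base-2 logarithm of genotype enrichment relative to wild-type enrichment, from inverse-variance-weighted replicate averages.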

Variant	polymerase ribozyme fitness (log ratio)
A29U A41C G62U A64C G65A A66C A73C C79A C95U	≤ -4.2
A28U G42U C79A C95U U101G C131G	≤ -4.2
A29G C35U G84U C103G	≤ -4.2
A28U C54U C85A G88A A115U G141U C149U	≤ -4.2
C27G U53A C79U G80C A106C G117A G128U	≤ -4.2
A30C C72U C79G C87U C95U G100A G124U A137G	≤ -4.2
C27G A40C G42C C93U G117C	≤ -4.2
C27G U44A G86A	≤ -4.2
A30C A47U G59A A60C A91U A106G U111G	≤ -4.2
A29C C32G C54A U82A C96A A150G	≤ -4.2
A29C U31A U56A U77G C93G G136U	≤ -4.2
A28G A52G A110G G124A	≤ -4.2
A30G G88C A107C C123U	≤ -4.2
C27G U45A G88A G92C A98G	≤ -4.2
C27A U45A A49U G65C C87G G94A C105U C131A	≤ -4.2
A29G G84U U134C	≤ -4.2
A29C G71A C96G C116U U139C	≤ -4.2
A30C C57G C85A A98U A120U G133U	≤ -4.2
C27U A30U A41G G67U C85A C95G	≤ -4.2
A28G A41C G81A C95G	≤ -4.2
A30G U33A C35U C54G C85A G128U	≤ -4.2
A29C A49C C63G G88U U109C G143C	≤ -4.2
A29U U55A G68U C87U G100U U101G	≤ -4.2
A29C U77G U78G G94A	≤ -4.2

Variant	polymerase ribozyme fitness (log ratio)
C27G C57A U61G	≤ -4.2
A30U A41C A47G G74A C85U A106C A147U U151A	≤ -4.2
A29U A40C U77C G88A A137C	≤ -4.2
A28C A52G A66U C69U C96A A107U	≤ -4.2
A28G C69U G70C G80C U127G	≤ -4.2
A28U C38G U53A C87U C118G G141C	≤ -4.2
A29U U33A U55A A66C C99G U102G A142G A150G	≤ -4.2
A29G A47C U61A U82G C108A	≤ -4.2
C27U U33G A40C C96G U101A	≤ -4.2
A29U U53A A91G A97C G126A	≤ -4.2
A28C A30U U31A U53A G81A C87A A91U A98G	≤ -4.2
A28U C95U C99A A107G	≤ -4.2
A28U U55A G84U A89U	≤ -4.2
A29C A37U G42C U56G G84A C129A U145C	≤ -4.2
A28G A47G C51G G70A C93G A107C G117U A120C	≤ -4.2
A28U G92C U144A	≤ -4.2
A29U A73U C95A A113U C125U G143C	≤ -4.2
A29U C87U C96U A113U G141U	≤ -4.2
C27U C87G	≤ -4.2
C27G C72G G88U C116G G117U A138U	≤ -4.2
C27U A39U C93U U135G G143C	≤ -4.2
A29U U33A C72U C87G G152A	≤ -4.2
C27A U45G G74C C87U U101A C116G	≤ -4.2
A30C G58C A66U U77G	≤ -4.2

Variant	polymerase ribozyme fitness (log ratio)
C27G G46U U55A G81U G128U A137G	≤ -4.2
C27U U56G C85A C118G C129G U134C	≤ -4.2
A28U G62A C132A	≤ -4.2
A30G U31G C76G G94A A107G G136A	≤ -4.2
A29U A40G C79G G80A G83U A142U	≤ -4.2
C27G A52G A91G A107G C129U G133U A150U	≤ -4.2
A28C A37U A91U A142G	≤ -4.2
A28C G83U C85G C116U G143U	≤ -4.2
A30C A66U U77G	≤ -4.2
A30G U45A G46C G48C C54U C93A C105G G124A U134G	≤ -4.2
A29G G59A A60U A64C C79A C131G G152U	≤ -4.2
A28U C32G U53A G59A A89U C96U A138G	≤ -4.2
A28G C54U A98U C118U G133U	≤ -4.2
C27G C79A G88U C93U U148A	≤ -4.2
C27U C54U A60G C72G A91G	≤ -4.2
A29U A41U G88C C99U A142G	≤ -4.2
C27U A28U A73U G83C C85G C96A A115U C116A A119U A120U U139A A142U	≤ -4.2
A30U A40U C75A G83U C131G U134C	≤ -4.2
A28U C54A U56G A73C G94U A98U C105U A121C U139A A147C	≤ -4.2
A28U U44A C75G C93A C99U C123A	≤ -4.2
A29U G68U G84U C87A	≤ -4.2
A29C C51U U78G	≤ -4.2
A29G U53C G68C C76U G86U G136A	≤ -4.2
A28C A29U C85U G126U	≤ -4.2

Variant	polymerase ribozyme fitness (log ratio)
A30G U56A G83A C96G A110G	≤ -4.2
A28U A37C U53A U55A C75U C79G C95G C105U G141U	≤ -4.2
A28G A52C G62C C85A G86U A106G G117A G136U U148A	≤ -4.2
A28U C32G A41C U61A G62C G70C C76A C105U C125A G133A	≤ -4.2
A29U G86U A91G	≤ -4.2
A29C C51A A52C C95A C118G U139G G143C	≤ -4.2
A28U G59U C87G A115G G133U	≤ -4.2
C27U A41U G42A A47U C72A C96G	≤ -4.2
A30C A49U G94U A110C U144G	≤ -4.2
C27U G46A G62C C129G	≤ -4.2
A29G C38A C63G G67C C79A C93A	≤ -4.2
C27U G84C G88A A97G C108G	≤ -4.2
A28C C43U G59C G74A G86U C95U G117C	≤ -4.2
A29U G58C G70C C99G A120G	≤ -4.2
A29U G42U A49C G70C G92A C103U C108G	≤ -4.2
A28U U55A G58C G65A	≤ -4.2
A28U A37C A41C G42C C57G C87G C93G C95G C103A A113G U139A G141A	≤ -4.2
C27G U55A C75G G84C	≤ -4.2
C27U G59A C93U G112U	≤ -4.2
A29U A39C A66C C76U U82A A91C C105U A120C	≤ -4.2
C27U U45C U61C G83U C116A C125U	≤ -4.2
A29U C54U A91G A97C A110U G124U C125U	≤ -4.2
C27U A91C C96G	≤ -4.2
A30C C93U A110G U151C	≤ -4.2

Variant	polymerase ribozyme fitness (log ratio)
C27G G86C G94A C105U C108A	≤ -4.2
A28C A39C C54G A73G G88A C93A	≤ -4.2
C27G A28U C38G G86A A97C A106G A137C A142C U145A	≤ -4.2
A28G C108U A122G A138G	≤ -4.2
A29G A41U U77G U90G G141A U145G	≤ -4.2
A29C C57U C125G G141U	≤ -4.2
A28U A47G A64U C76U G83U A119U C129G G136U	≤ -4.2
A28C G42A U45G G88C C95U A142G U145A	≤ -4.2
A29U G58C G81C A91U	≤ -4.2
A30C C38A C87A	≤ -4.2
C27A U104G	≤ -4.2
A29C C32U C35G U56A A60U C105G	≤ -4.2
C27U U55A A66G C69G G92A A98G G128U	≤ -4.2
C27G A28G G50C A66G G70A G94C G112A	≤ -4.2
A29U U53G C76A A98G C99U A119U	≤ -4.2
A29U G48C A60C C93G	≤ -4.2
A29C C76G	≤ -4.2
A28U G50A C57A A64C C75U G88U C95A	≤ -4.2
A28U G70A G81C A120G	≤ -4.2
C27G U56G A64G G83A C93A G117U C125G	≤ -4.2
C27G G50A C85U A97C U102G U146G G152A	≤ -4.2
A28U A73G C87U C125A U134C U144G	≤ -4.2
A29C A37G A89G G143C	≤ -4.2
A28C C32G G42C U53A U56G C57G C85U A115G	≤ -4.2

Variant	polymerase ribozyme fitness (log ratio)
A30G C36U G58A C93G A97U	≤ -4.2
A29U A64U G83A C95A C123A G143C	≤ -4.2
A29G G80C C93G G128U U145C	≤ -4.2
A29C C36G G83U G84A G92C C96U	≤ -4.2
A29C A39C C79U U90C A91U	≤ -4.2
A28U U31C U45A A49C A66G C87U U101A U139A	≤ -4.2
C27U A30C A40C U53A G58A C85A A97U	≤ -4.2
A28U G143C	≤ -4.2
C27G C32G A37G C87U	≤ -4.2
A29G A30U G46C C105U A122G U135G A150C	≤ -4.2
A28U U61A G65A G68C G81A C114U A150U	≤ -4.2
C27U C32G A40G C131U U135A	≤ -4.2
C27G G50C G58A G59A G92C	≤ -4.2
A29U A40U U56A C69A U82A A89G C96U C105U G140U	≤ -4.2
A28U C87U	≤ -4.2
A29U U33A G84U A89G U135A	≤ -4.2
A29U A97U	≤ -4.2
A28U C35G U45A A66C C79A C87U C129A U135G	≤ -4.2
A28U G46A G68A C79G G92A C108A A119U A150C	≤ -4.2
A28C A47U U56A C76G U78A C95U G133U	≤ -4.2
A29G G62U U82C	≤ -4.2
C27G G59U A97U C114U	≤ -4.2
A28G A41C C76G G81U C85A C123A G143C	≤ -4.2
A29C G92C U151C	≤ -4.2

Variant	polymerase ribozyme fitness (log ratio)
C27U A52G C93G U104A U111G	≤ -4.2
A28U U31G G50A U56A C72U C85U C118G	≤ -4.2
A28U C38U A39U C57U	≤ -4.2
A29U A37U A73G A138G G143C	≤ -4.2
A29G A39C C69G G83A G86C A97U A120G	≤ -4.2
A29U U53A C93A	≤ -4.2
C27G C96G U111C	≤ -4.2
A28U A66G G112C G141A	≤ -4.2
A29U U31A A60G C63A C93U A97C G126U	≤ -4.2
A28C G50C G68A C132G	≤ -4.2
A28C G67C	≤ -4.2
A28U C43U A73G C85A C118A	≤ -4.2
A30G C132A	≤ -4.2
C27U C87G C105G	≤ -4.2
A30C A40C A47C G84A	≤ -4.2
A29U G59A C85A	≤ -4.2
A29U G46A U56A G68U G84A U148C	≤ -4.2
C27U G58A A91U A106C A121U G128U G140U	≤ -4.2
A29G C35U A47C U82G A91U G92C A107U C131U	≤ -4.2
C27U C32U A49G G65U A113G G136U	≤ -4.2
A28C A37U G48U G50A G86U G126U	≤ -4.2
A29C A40C A52G U61A	≤ -4.2
A29U C38U U90A A120U U135G G143U	≤ -4.2
